According to PubChem BioAssay AID256 (DTP/NCI, 2004):
Values joined by “and” are separate entries in the source; they are usually repeats but may differ in a detail not shown here. Identical values can stand only once. Further values from the same series stand in other lists. Inconclusive results and toxic doses are left out.

Tested on: CD2F1 mice, L1210 leukemia ip, survival T/C
Experiment: NCI In Vivo Anticancer Drug Screen. Data for tumor model L1210 Leukemia (intraperitoneal) in CD2F1 (CDF1) mice
Details: higher = longer survival
Outline: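 Transplantable tumor in mice; compound-treated vs vehicle-treated groups. Read-out = treated/control ratio of the measured endpoint.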

COc1cccc2c1C(=O)c1c(O)c3c(c(O)c1C2=O)C[C@@](O)(C(=O)CO)C[C@@H]3OC1CC(N)C(O)C(C)O1 (stereo partly drawn)
T/C (endpoint: mean survival time, dose: 0.13 mg/kg/injection, schedule: Q01DX009 (ip), vehicle: saline): 108 % of control
T/C (endpoint: mean survival time, dose: 0.2 mg/kg/injection, schedule: Q01DX009 (ip), vehicle: water): 106 % of control
T/C (endpoint: mean survival time, dose: 0.25 mg/kg/injection, schedule: Q01DX005 (ip), vehicle: water): 110 % of control
T/C (endpoint: mean survival time, dose: 0.38 mg/kg/injection, schedule: Q01DX009 (ip), vehicle: saline): 122 % of control
T/C (endpoint: mean survival time, dose: 0.39 mg/kg/injection, schedule: Q01DX009 (ip), vehicle: water): 111 % of control
T/C (endpoint: mean survival time, dose: 0.75 mg/kg/injection, schedule: Q01DX009 (ip), vehicle: saline): 122 % of control
T/C (endpoint: mean survival time, dose: 1.0 mg/kg/injection, schedule: Q04DX003 (ip), vehicle: water): 107 % of control
T/C (endpoint: mean survival time, dose: 1.56 mg/kg/injection, schedule: Q01DX009 (ip), vehicle: water): 167 % of control
T/C (endpoint: mean survival time, dose: 2.0 mg/kg/injection, schedule: Q04DX003 (ip), vehicle: water): 107 % of control
T/C (endpoint: mean survival time, dose: 3.0 mg/kg/injection, schedule: Q01DX001 (ip), vehicle: saline): 108 % of control
T/C (endpoint: mean survival time, dose: 3.12 mg/kg/injection, schedule: Q01DX009 (ip), vehicle: dextrose): 200 % of control
T/C (endpoint: mean survival time, dose: 3.13 mg/kg/injection, schedule: Q01DX009 (ip), vehicle: water): 176 % of control
T/C (endpoint: mean survival time, dose: 3.33 mg/kg/injection, schedule: Q01DX009 (ip), vehicle: saline): 110 % of control
T/C (endpoint: mean survival time, dose: 4.0 mg/kg/injection, schedule: Q01DX001 (ip), vehicle: saline): 108 % of control
T/C (endpoint: mean survival time, dose: 4.0 mg/kg/injection, schedule: Q04DX003 (ip), vehicle: water): 112 % of control
T/C (endpoint: mean survival time, dose: 6.0 mg/kg/injection, schedule: Q01DX001 (ip), vehicle: saline): 111 % of control
T/C (endpoint: mean survival time, dose: 6.0 mg/kg/injection, schedule: Q01DX009 (ip), vehicle: saline): 109 % of control and 110 % of control
T/C (endpoint: mean survival time, dose: 6.25 mg/kg/injection, schedule: Q01DX009 (ip), vehicle: dextrose): 160 % of control
T/C (endpoint: mean survival time, dose: 8.0 mg/kg/injection, schedule: Q01DX001 (ip), vehicle: saline): 105 % of control
T/C (endpoint: median survival time, dose: 0.25 mg/kg/injection, schedule: Q01DX005 (iv), vehicle: water): 106 % of control
T/C (endpoint: median survival time, dose: 0.5 mg/kg/injection, schedule: Q01DX005 (iv), vehicle: water): 112 % of control
T/C (endpoint: median survival time, dose: 1.0 mg/kg/injection, schedule: Q01DX005 (iv), vehicle: water): 112 % of control
T/C (endpoint: median survival time, dose: 1.3 mg/kg/injection, schedule: Q04DX003 (ip), vehicle: saline): 107 % of control
T/C (endpoint: median survival time, dose: 2.0 mg/kg/injection, schedule: Q01DX001 (iv), vehicle: water): 109 % of control
T/C (endpoint: median survival time, dose: 2.9 mg/kg/injection, schedule: Q01DX001 (ip), vehicle: saline): 111 % of control
T/C (endpoint: median survival time, dose: 4.0 mg/kg/injection, schedule: Q01DX001 (iv), vehicle: water): 111 % of control
T/C (endpoint: median survival time, dose: 5.0 mg/kg/injection, schedule: Q04DX003 (ip), vehicle: water): 107 % of control
T/C (endpoint: median survival time, dose: 13.3 mg/kg/injection, schedule: Q01DX001 (ip), vehicle: saline): 109 % of control
